Source: ChEMBL document CHEMBL1201862, “PubChem BioAssay data set” (2004)

test system: NCI-H322M; experiment: NCI tumour cell line growth inhibition, 48 h

Row | SMILES | GI50
1 | O=[N+]([O-])C(=C1Nc2ccccc2N1)C(Cl)=C(Cl)Cl | inactive: > 100 µM
2 | CC(=O)Nc1cc(CN2CCCCC2)c(O)c2ncccc12 | inactive: 31 µM
3 | O=c1cc(N2CCCC2)[nH]c(=O)n1-c1ccc(Cl)cc1 | inactive: > 100 µM
4 | CC(=O)O[C@H]1CC[C@H]2[C@@H]3CCc4cc(O)c(I)cc4[C@H]3CC[C@]12C | inactive: 15.9 µM
5 | CN(Cc1cc(Cl)cc(Cl)c1)CC(C(=O)c1ccccc1)c1ccccc1 (stereo not drawn) | inactive: 17.7 µM
6 | COc1cc(C2C(Cl)C(=O)N2NC(=O)Cc2ccccc2)ccc1O (stereo not drawn) | inactive: > 100 µM
7 | COc1ccc(C2=C(N)c3c(OC)cccc3C2=O)cc1 | inactive: > 100 µM
8 | CC(C)(C)N/N=C(\C(=O)Nc1nnc(S)[nH]1)C1C(=O)Nc2ccccc2[S+]1[O-] (stereo not drawn) | inactive: > 100 µM
9 | COC(=O)CNC(=O)CSc1nnc(COc2ccc(Cl)cc2)n1-c1ccccc1 | inactive: 18.9 µM
10 | C=CC[C@@]1(OC(C)=O)C(=O)C(=O)OC1C1COC(C)(C)O1 (stereo partly drawn) | inactive: 49.8 µM
11 | CC(=O)/C=C1/C(=O)C(CC(C)C)=C1CC(C)C | inactive: > 100 µM
12 | C=CCN1CC2CN=NC2(C#N)C1 (stereo not drawn) | inactive: > 100 µM
13 | CCOC(=O)C1C2C1C1C(C(=O)OCC)C21 (stereo not drawn) | inactive: > 100 µM
14 | C[C@@H](NC(=O)Nc1cccc(C(=O)Nc2cc(C(C)(C)C)ccc2C(=O)O)n1)c1ccccc1 | inactive: 54.3 µM
15 | CCOC(=O)c1nc2ccccc2nc1Oc1cc(OC)c(OC)c(OC)c1 | inactive: > 100 µM
16 | N#Cc1c(-c2ccc(Cl)cc2)cc(-c2ccc(Nc3ccnc4cc(C(F)(F)F)ccc34)cc2)nc1N | inactive: 20.7 µM
17 | CC(=O)N1N=C(c2c(O)ccc3ccccc23)CC1C(=O)c1ccco1 (stereo not drawn) | inactive: 37 µM
18 | O=c1cc(CO)oc2c3c(cc(O)c12)OCC(COC1OC(CO)C(O)C(O)C1O)=CC3 (stereo not drawn) | inactive: > 100 µM
19 | O=C(O)Cc1ccc(Oc2nc3ccccc3nc2C(=O)O)cc1 | inactive: > 100 µM
20 | Cc1cc(N(CCC#N)CCC#N)ccc1C(/N=N/c1ccc([N+](=O)[O-])cc1)=N\NC(=O)c1cc(Cl)ccc1C(=O)c1ccccc1 | inactive: 15.8 µM
21 | CC1=C(C(=O)NNC(=O)c2ccccc2)CC(C(=O)NNC(=O)c2ccccc2)=C(C)N1 | inactive: > 100 µM

Row | SMILES | GI50
22 | CC(=O)N1CN2C(=O)CCC2c2cc(C)ccc21 (stereo not drawn) | inactive: > 100 µM
23 | N#CC1(Cc2ccccc2[N+](=O)[O-])c2ccccc2C2C(N1C(=O)c1ccccc1)C2(Cl)Cl (stereo not drawn) | inactive: > 100 µM
24 | CCCCNC(=O)C1=C(C)NC(C)=C(C(=O)NCCCC)C1 | inactive: > 100 µM
25 | Cc1nc2ccc(Cl)cc2c2c1CCO2 | inactive: 51.1 µM
26 | N#C/N=C1\NC(Cc2ccccc2)C(=O)N1CCc1c[nH]c2ccccc12 (stereo not drawn) | inactive: 59.7 µM
27 | CCCC(=O)OCC1OC(n2cc(F)c(=O)[nH]c2=O)CC1O (stereo not drawn) | inactive: 3.1 µM
28 | OCCCc1ccc2c(c1)[C@H](CO)[C@@H](c1ccc(O)cc1)O2 | inactive: > 100 µM
29 | CCOC(=O)C(Cc1ccc(N(CCCl)CCCl)cc1)NC(=O)CCCN1C(=O)CN=C(c2ccccc2)c2cc(Cl)ccc21 (stereo not drawn) | inactive: 53.2 µM
30 | COc1ccc2/c(=C/c3ccc(N(C)C)cc3)c3cc(-c4ccccc4)[n+](C)n3c2c1 | active: 0.745 µM
31 | N#Cc1c(-c2cccc(Cl)c2)cc(-c2ccc(Cl)cc2)nc1N | inactive: 22.2 µM
32 | CC1(C)N=C(N)N=C(N)N1c1ccc(OCC(=O)Nc2cccc(S(=O)(=O)F)c2)c(Cl)c1 | inactive: 24.3 µM
33 | CC(=O)C(=[N+]=[N-])C(=O)OCCOC(=O)C(=[N+]=[N-])C(C)=O | active: > 1 µM
34 | CCOC(=O)Cn1nc2ccc(Nc3nc4ccccc4nc3C(=O)OCC)cc2n1 | inactive: 92.9 µM
35 | COC(=O)C(C(=O)C(=O)Nc1ccc(N)cc1[N+](=O)[O-])c1nc2ccc(Cl)cc2nc1O (stereo not drawn) | inactive: > 100 µM
36 | C[N+](C)(CCNC(=O)c1cccc2cc3ccccc3nc12)Cc1ccc([N+](=O)[O-])cc1 | inactive: > 100 µM
37 | CCN(CC)C(=O)COc1ccc(Br)cc1Br | inactive: > 100 µM
38 | CC(=O)N(N=O)c1ccc(N(N=O)C(C)=O)cc1 | inactive: > 100 µM
39 | CC[C@]1(Cc2ccc(OC)c(OC)c2)C=[N+]([O-])O[C@H](OC2CCCC2(c2ccccc2)c2ccccc2)[C@@H]1OC(=O)C(C)(C)C (stereo partly drawn) | inactive: 4.56 µM
40 | N#Cc1cccc(Nc2ccccc2SSc2ccccc2Nc2cccc(C#N)c2)c1 | inactive: 16.4 µM
41 | Cc1ccc2nc(-c3ccccc3)c(N=O)n2c1 | inactive: 57.1 µM
42 | CCOC(=O)C1=NC(c2ccccc2)(c2ccccc2)OC1=C(Cl)Cl | inactive: > 100 µM

Row | SMILES | GI50
43 | CNC(=O)N(CCC#N)CCCN(C(=O)NC)c1ccccc1 | inactive: > 100 µM
44 | C/C(CC(=O)Nc1ccc(C)c(C)c1)=N\NC(N)=S | inactive: > 100 µM
45 | O=C(c1c2c(cc3c1CC1(Cc4cc5c(cc4C1)CCCC5)C3)CCCC2)C(Br)Br | inactive: > 57.7 µM
46 | OCCCCCCOc1ccc(-c2cc(-c3ccccn3)nc(-c3ccccn3)c2)cc1 | active: 0.0583 µM
47 | Cc1c(NC(=O)c2cc([N+](=O)[O-])cc([N+](=O)[O-])c2)c(=O)n(-c2ccccc2)n1C | inactive: > 100 µM
48 | CN(C)CC1CCC/C1=N\O (stereo not drawn) | inactive: > 100 µM
49 | CC1C(=O)CC[C@@]2(C)C(=O)CCCC12O (stereo partly drawn) | inactive: > 100 µM
50 | Cc1nnc2nc(-c3ccc(Cl)cc3Cl)cc(-c3ccc(Cl)cc3)n12 | inactive: > 100 µM
51 | Fc1ccccc1C1SCC2=Nc3ccccc3CN21 (stereo not drawn) | inactive: 65.2 µM
52 | c1ccc(CN(Cc2ccccn2)Cn2cccn2)nc1 | inactive: 39.5 µM
53 | c1ccc(C2=NN(c3ccccc3)C3(S2)SC(c2ccccc2)(c2ccccc2)c2ccccc23)cc1 (stereo not drawn) | inactive: > 100 µM
54 | COc1nc2c(c(O)c(C)c(=O)n2OC2OCC(OC(C)=O)C(OC(C)=O)C2OC(C)=O)c(=O)n1C (stereo not drawn) | inactive: > 100 µM
55 | OCC(O)C(Cl)CCl (stereo not drawn) | inactive: > 100 µM
56 | COc1cc(C(c2cccc3ccccc23)N2C(=O)CCC2C(=O)NCc2ccccc2)cc(OC)c1OC (stereo not drawn) | inactive: > 100 µM
57 | O=C(Nc1c(Cl)cccc1Cl)c1c(Cl)c(Cl)c(Cl)c(Cl)c1-c1nc2ccccc2[nH]1 | active: 0.0721 µM
58 | C/C=C(/C)C(=O)O[C@H]1[C@H](O)CC(c2ccc3c(c2O)C(=O)C2=C(O)C4(OC)C(=O)C(C(N)=O)=C(O)[C@H](CC(=O)c5ccccc5O)C4CC2[C@@]3(C)OC)O[C@@H]1C (stereo partly drawn) | active: 0.0211 µM
59 | COc1ccc2c(CCNC(=O)/C=C/c3ccccc3)c(C(C)=O)[nH]c2c1[N+](=O)[O-] | inactive: 33.9 µM
60 | O=C1NC(Cc2c[nH]c3ccccc23)C(=O)N2C(c3ccccc3)c3[nH]c4ccccc4c3C[C@@H]12 (stereo partly drawn) | inactive: 26.4 µM
61 | O=c1c(C(c2ccc(/C=C/c3ccccc3)cc2)c2c(O)oc3cc(O)ccc3c2=O)c(O)oc2cc(O)ccc12 | inactive: > 100 µM
62 | COC(=O)C1c2cc3c(c(O)c2CCC1(C)O)C(=O)c1c(O)cc2c(c1C3=O)OC1OC2(C)C(O)C(N(C)C)C1O (stereo not drawn) | active: 0.194 µM
63 | CC(=O)Nc1cc2cc(NS(=O)(=O)c3cc(C(F)(F)F)cc(C(F)(F)F)c3)ccc2oc1=O | inactive: > 100 µM

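In this assay, cells in 96-well plates receive the compound at five concentrations for 48 hours. Endpoints are linearly interpolated between the surrounding concentrations. GI50 is the concentration that inhibits growth by half.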 Activity calls are given as the source filed them. No stated cut-off is given here; in the data, active = GI50 up to about 1.1 µM and inactive = higher.
